# Assay results taken from the supplement of paper PMC8728848.
# The other results are listed elsewhere or left out.
# B1: T7P4 (Tuber borchii) (protein)
# chain: GSHIGPYMSFYASSEDVRTIEEGGRTWLVGRARRADGSWQDIKLDLDNIIGNRDGHLTWGEQNFTQSASDIRFNFEGSNVPVLRAKLRNAAGGEQESDLNLGERLTNNNGDLVFN
# Assays:
# Assay in all cases: glycan array binding signal (z-score within array); higher = stronger binding
# Details in all cases: glycan notation: IUPAC condensed, linker removed
# [1] = molecular target: GlcNAc(b1-4)GlcNAc(b1-4)GlcNAc(b1-4)GlcNAc(b1-4)GlcNAc
# Procedure, shortened: (§1)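 Negative Z-scores can be read as non-binding. The Z-score is calculated within each array and then averaged across arrays of one protein sequence at different concentrations or buffers and across linkers. Arrays, 3228 in all, were curated from the Consortium for Functional Glycomics database and kept only where the protein sequence was available.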
# [2] = molecular target: GlcNAc(b1-4)GlcNAc(b1-4)GlcNAc(b1-4)GlcNAc(b1-4)GlcNAc(b1-4)GlcNAc
# Procedure, shortened: as §1
# [3] = molecular target: GlcNAc(b1-4)[GlcNAc(b1-6)]GalNAc
# Procedure, shortened: as §1
# [4] = molecular target: GlcNAc(b1-6)Gal(b1-4)GlcNAc
# Procedure, shortened: as §1
# GlcNAc(b1-6)GalNAc = molecular target: GlcNAc(b1-6)GalNAc
# Procedure, shortened: as §1
# Kdn(a2-3)Gal(b1-3)GlcNAc = molecular target: Kdn(a2-3)Gal(b1-3)GlcNAc
# Procedure, shortened: as §1
# Kdn(a2-3)Gal(b1-4)GlcNAc = molecular target: Kdn(a2-3)Gal(b1-4)GlcNAc
# Procedure, shortened: as §1
# [5] = molecular target: Man(a1-2)Man(a1-2)Man(a1-3)Man
# Procedure, shortened: as §1
# [6] = molecular target: Man(a1-2)Man(a1-2)Man(a1-3)[Man(a1-2)Man(a1-3)[Man(a1-2)Man(a1-6)]Man(a1-6)]Man(b1-4)GlcNAc(b1-4)GlcNAc
# Procedure, shortened: as §1
# [7] = molecular target: Man(a1-2)Man(a1-2)Man(a1-3)[Man(a1-2)Man(a1-6)[Man(a1-3)]Man(a1-6)]Man(b1-4)GlcNAc(b1-4)GlcNAc
# Procedure, shortened: as §1
# [8] = molecular target: Man(a1-2)Man(a1-2)Man(a1-6)[Man(a1-3)]Man
# Procedure, shortened: as §1
# Man(a1-2)Man(a1-3)Man = molecular target: Man(a1-2)Man(a1-3)Man
# Procedure, shortened: as §1
# [9] = molecular target: Man(a1-2)Man(a1-3)[Man(a1-2)Man(a1-6)]Man
# Procedure, shortened: as §1
# [10] = molecular target: Man(a1-2)Man(a1-3)[Man(a1-2)Man(a1-6)]Man(a1-6)[Man(a1-2)Man(a1-2)Man(a1-3)]Man(b1-4)GlcNAc(b1-4)GlcNAc
# Procedure, shortened: as §1
# [11] = molecular target: Man(a1-2)Man(a1-3)[Man(a1-3)[Man(a1-6)]Man(a1-6)]Man(b1-4)GlcNAc(b1-4)GlcNAc
# Procedure, shortened: as §1
# [12] = molecular target: Man(a1-2)Man(a1-3)[Man(a1-6)]Man(a1-6)[Man(a1-2)Man(a1-3)]Man(b1-4)GlcNAc(b1-4)GlcNAc
# Procedure, shortened: as §1
# [13] = molecular target: Man(a1-2)Man(a1-6)[Man(a1-3)]Man(a1-6)[Man(a1-2)Man(a1-2)Man(a1-3)]Man(b1-4)GlcNAc(b1-4)GlcNAc
# Procedure, shortened: as §1
# Man(a1-3)[Man(a1-6)]Man = molecular target: Man(a1-3)[Man(a1-6)]Man
# Procedure, shortened: as §1
# [14] = molecular target: Man(a1-3)[Man(a1-6)]Man(a1-6)[Man(a1-2)Man(a1-3)]Man(b1-4)GlcNAc(b1-4)GlcNAc
# Procedure, shortened: as §1
# [15] = molecular target: Man(a1-3)[Man(a1-6)]Man(a1-6)[Man(a1-3)]Man(b1-4)GlcNAc(b1-4)GlcNAc
# Procedure, shortened: as §1
# [16] = molecular target: Man(a1-3)[Man(a1-6)]Man(b1-4)GlcNAc(b1-4)GlcNAc
# Procedure, shortened: as §1
# Man(b1-4)GlcNAc = molecular target: Man(b1-4)GlcNAc
# Procedure, shortened: as §1
# Neu5Ac(a2-3)Gal = molecular target: Neu5Ac(a2-3)Gal
# Procedure, shortened: as §1
# [17] = molecular target: Neu5Ac(a2-3)Gal(b1-3)GalNAc
# Procedure, shortened: as §1
# [18] = molecular target: Neu5Ac(a2-3)Gal(b1-3)GalNAc(b1-3)Gal(a1-4)Gal(b1-4)Glc
# Procedure, shortened: as §1
# [19] = molecular target: Neu5Ac(a2-3)Gal(b1-3)GalNAc(b1-3)Gal(b1-4)GlcNAc
# Procedure, shortened: as §1
# [20] = molecular target: Neu5Ac(a2-3)Gal(b1-3)GalNAc(b1-4)[Neu5Ac(a2-3)]Gal(b1-4)Glc
# Procedure, shortened: as §1
# [21] = molecular target: Neu5Ac(a2-3)Gal(b1-3)GalNAc6S
# Procedure, shortened: as §1
# [22] = molecular target: Neu5Ac(a2-3)Gal(b1-3)GlcNAc
# Procedure, shortened: as §1
# [23] = molecular target: Neu5Ac(a2-3)Gal(b1-3)GlcNAc(b1-3)Gal(b1-4)GlcNAc
# Procedure, shortened: as §1
# [24] = molecular target: Neu5Ac(a2-3)Gal(b1-3)GlcNAc6S
# Procedure, shortened: as §1
# [25] = molecular target: Neu5Ac(a2-3)Gal(b1-3)[Fuc(a1-4)]GlcNAc
# Procedure, shortened: as §1
# [26] = molecular target: Neu5Ac(a2-3)Gal(b1-3)[Fuc(a1-4)]GlcNAc(b1-3)Gal(b1-4)[Fuc(a1-3)]GlcNAc
# Procedure, shortened: as §1
# [27] = molecular target: Neu5Ac(a2-3)Gal(b1-3)[Neu5Ac(a2-3)Gal(b1-4)]GlcNAc
# Procedure, shortened: as §1
# [28] = molecular target: Neu5Ac(a2-3)Gal(b1-3)[Neu5Ac(a2-6)]GalNAc
# Procedure, shortened: as §1
# Neu5Ac(a2-3)Gal(b1-4)Glc = molecular target: Neu5Ac(a2-3)Gal(b1-4)Glc
# Procedure, shortened: as §1
# [29] = molecular target: Neu5Ac(a2-3)Gal(b1-4)GlcNAc
# Procedure, shortened: as §1
# [30] = molecular target: Neu5Ac(a2-3)Gal(b1-4)GlcNAc(b1-2)Man(a1-3)[Neu5Ac(a2-3)Gal(b1-4)GlcNAc(b1-2)Man(a1-6)]Man(b1-4)GlcNAc(b1-4)GlcNAc
# Procedure, shortened: as §1
# [31] = molecular target: Neu5Ac(a2-3)Gal(b1-4)GlcNAc(b1-3)Gal(b1-4)GlcNAc
# Procedure, shortened: as §1
# [32] = molecular target: Neu5Ac(a2-3)Gal(b1-4)GlcNAc(b1-3)Gal(b1-4)GlcNAc(b1-3)Gal(b1-4)GlcNAc
# Procedure, shortened: as §1
binder,measurement,setting,value
B1,glycan array binding signal (z-score),[1],-0.218
same,glycan array binding signal (z-score),[2],-0.225
same,glycan array binding signal (z-score),[3],-0.222
same,glycan array binding signal (z-score),[4],-0.22
same,glycan array binding signal (z-score),GlcNAc(b1-6)GalNAc,-0.223
same,glycan array binding signal (z-score),Kdn(a2-3)Gal(b1-3)GlcNAc,-0.214
same,glycan array binding signal (z-score),Kdn(a2-3)Gal(b1-4)GlcNAc,-0.219
same,glycan array binding signal (z-score),[5],0.842
same,glycan array binding signal (z-score),[6],-0.215
same,glycan array binding signal (z-score),[7],-0.178
same,glycan array binding signal (z-score),[8],0.12
same,glycan array binding signal (z-score),Man(a1-2)Man(a1-3)Man,-0.203
same,glycan array binding signal (z-score),[9],-0.212
same,glycan array binding signal (z-score),[10],-0.215
same,glycan array binding signal (z-score),[11],-0.223
same,glycan array binding signal (z-score),[12],-0.213
same,glycan array binding signal (z-score),[13],-0.179
same,glycan array binding signal (z-score),Man(a1-3)[Man(a1-6)]Man,-0.219
same,glycan array binding signal (z-score),[14],-0.223
same,glycan array binding signal (z-score),[15],-0.225
same,glycan array binding signal (z-score),[16],-0.226
same,glycan array binding signal (z-score),Man(b1-4)GlcNAc,-0.217
same,glycan array binding signal (z-score),Neu5Ac(a2-3)Gal,-0.099
same,glycan array binding signal (z-score),[17],-0.079
same,glycan array binding signal (z-score),[18],-0.113
same,glycan array binding signal (z-score),[19],-0.207
same,glycan array binding signal (z-score),[20],-0.213
same,glycan array binding signal (z-score),[21],-0.152
same,glycan array binding signal (z-score),[22],-0.152
same,glycan array binding signal (z-score),[23],-0.207
same,glycan array binding signal (z-score),[24],-0.223
same,glycan array binding signal (z-score),[25],-0.184
same,glycan array binding signal (z-score),[26],0.101
same,glycan array binding signal (z-score),[27],-0.195
same,glycan array binding signal (z-score),[28],-0.222
same,glycan array binding signal (z-score),Neu5Ac(a2-3)Gal(b1-4)Glc,1.89
same,glycan array binding signal (z-score),[29],-0.214
same,glycan array binding signal (z-score),[30],-0.218
same,glycan array binding signal (z-score),[31],-0.225
same,glycan array binding signal (z-score),[32],-0.223
